Measured values taken from PubChem BioAssay AID1347073 (National Center for Advancing Translational Sciences (NCATS), 2019).
Screen size: about 45,000 compounds; about 200 (0.44%) were called active. Not shown: some 7% with an inconclusive outcome. Calls come from the whole dose curve; as a rule, active = well fitted activation curve with a large enough effect; inconclusive = small, poorly fitted or top-dose-only effect; inactive = no such curve, though single readings can be large or run the other way. This is one part of the list.

Test: qHTS of TDP-43 Inhibitors: NCGC Sytravon Library Screen; note: 0% is about no effect; nearly all actives have a fitted effect of over 55% in size
Settings: yeast TDP-43 toxicity rescue, BacTiter-Glo growth, 24 h; series mostly up to 46.1 µM; growth rescue (activation): at the top concentration
Outline: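 TDP-43-expressing yeast, pregrown in raffinose, seeded at OD600 0.02 in galactose medium with compound for 24 hr at 30 deg C. Growth read by BacTiter-Glo luminescence, so rescue of toxicity appears as activation.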

| Compound | growth rescue (activation) |
| --- | --- |
| O=C(CN1C(=O)C(=O)N(CCC2=CCCCC2)C1=O)c1c[nH]c2ccccc12 | inactive: 8.97% |
| Cc1ccc(CNC(=O)COC(=O)c2ccc(S(=O)(=O)N(C)C)cc2)cc1 | inactive: 15.9% |
| CCCC(=O)Nc1nnc(S(=O)(=O)N(C)Cc2ccco2)s1 | inactive: 5.95% |
| Cc1ccc(C(=O)NCC(=O)OCc2csc(-c3ccccc3)n2)cc1 | inactive: 16.4% |
| O=c1c2c([nH]n1-c1ccccc1)CCCC2 | inactive: 8.66% |
| O=C(O)Cn1ccnc1 | inactive: 22.6% |
| O=C(CSc1nnc2n1CCCCC2)Nc1ccc(N2CCOCC2)cc1 | inactive: 30.2% |
| Cc1cc(=O)[nH]c(SCC(=O)N2CCCC2)n1 | inactive: 25.1% |
| CSc1ccccc1NC(=O)COC(=O)c1ccc(O)cc1 | inactive: 28.4% |
| COC(=O)C(NC(=O)c1ccco1)(Nc1ccc(Br)cn1)C(F)(F)F (stereo not drawn) | inactive: 16.3% |
| CN(C)CC(O)COC(c1ccc(Cl)cc1)c1ccc(Cl)cc1 (stereo not drawn) | inactive: 13% |
| CCC1Oc2ccc(C)cc2N(CC(=O)NCc2cccs2)C1=O (stereo not drawn) | inactive: 8.4% |
| COC(=O)c1cn(CC(=O)Nc2ccc(F)cc2)c2ccccc12 | inactive: -3.86% |
| CC(=O)c1cccc(Nc2nc(-c3cccc([N+](=O)[O-])c3)cs2)c1 | inactive: 12.2% |
| COc1cccc(C(=O)COC(=O)c2ccc(NC(C)=O)cc2)c1 | inactive: 19.3% |
| CCc1nc2ccc(C(=O)Nc3ccc(OC)c(OC)c3)cn2c1N(C)CCC(C)C | inactive: 4.14% |
| CCOC(=O)C(C(C)C)C(N)Cc1ccc(F)cc1 (stereo not drawn) | inactive: -3.87% |
| O=C(CCC(=O)c1ccc(Oc2ccccc2)cc1)Nc1cccc(Cl)c1Cl | inactive: 12.3% |
| COCCn1c(SCC(=O)N2CC(=O)Nc3ccccc32)nc2ccccc21 | inactive: -7.89% |
| CCOC(=O)C1(Cc2ccccc2)CCCN(Cc2ccccn2)C1 (stereo not drawn) | inactive: 18.7% |
| O=c1[nH]c2ccccc2cc1CN(c1ccccc1)S(=O)(=O)c1ccccc1 | inactive: -6.68% |
| Cc1cccc(NC(=S)NCc2ccc3c(c2)OCO3)c1C | inactive: 32.9% |
| CN(C)C(=O)c1cccc(-c2cnc3c(NC=O)cc(-c4ccccc4Cl)cn23)c1 | inactive: 12.8% |

| Compound | growth rescue (activation) |
| --- | --- |
| COc1ccccc1NC(=O)Nc1nc(C(N)CCc2ccccc2)cs1 (stereo not drawn) | inactive: 15.2% |
| COc1ccc(S(=O)(=O)Nc2cc(S(=O)(=O)c3ccccc3)c(O)cc2C)cc1 | inactive: 2.11% |
| O=C(Cc1cc(=O)[nH][nH]1)N/N=C/C=C/c1ccccc1 | inactive: -6.06% |
| O=C(c1ccc([N+](=O)[O-])s1)N1CCCc2ccccc21 | inactive: 8.43% |
| COc1ccc(S(=O)(=O)N2CCCC(C(=O)NC3CC3)C2)cc1Cl (stereo not drawn) | inactive: -3.63% |
| CCn1c(/C=C/c2ccccc2[N+](=O)[O-])nc2ccccc2c1=O | inactive: 1.76% |
| O=C(Nc1ccc(Cl)c(S(=O)(=O)N2CCOCC2)c1)c1cc(-c2ccccn2)nc2ccccc12 | inactive: 13.3% |
| CCc1ccc(N2CCN(S(=O)(=O)CC34CCC(CC3=O)C4(C)C)CC2)cc1 (stereo not drawn) | inactive: 5.24% |
| COc1ccc(C)cc1NC(=O)C1CCN(C(=O)C2CC(=O)N(c3ccc(C)cc3)C2)CC1 (stereo not drawn) | inactive: 13.1% |
| O=C1CCC(c2ccccc2)=NN1Cc1c(F)cccc1Cl | inactive: 0.602% |
| COc1ccc(C(=O)Nc2ccccc2-c2ccccc2)cc1Cl | inactive: 15.6% |
| COc1ccc(NC(=S)N2CCC(N(C)CCN3CCOCC3)CC2)cc1 | inactive: 3.83% |
| COc1ccc(S(=O)(=O)N2CCOCC2)cc1NC(=O)COC(=O)CC1CC2CCC1C2 (stereo not drawn) | inactive: 17% |
| Cc1cc(C(=O)CSc2nc(N)cc(N)n2)c(C)n1CC1CCCO1 (stereo not drawn) | inactive: 10.3% |
| CCn1ncc([N+](=O)[O-])c1C(=O)N1CCc2ccccc2C1 | inactive: 27.6% |
| CCOc1ccc(S(=O)(=O)NCc2ccccc2)cc1C(N)=O | inactive: 15.6% |
| COc1ccc(-c2nn(-c3ccccc3)cc2CNCCN2CCOC2=O)c(F)c1 | inactive: 7.63% |
| COc1ccc(NC(=O)CSCCc2ccccn2)cc1OC | inactive: -0.643% |
| CCOC(=O)N1CCN(C(=O)C2CC(=O)N(c3ccccc3)C2)CC1 (stereo not drawn) | inactive: 24.6% |
| COc1ccccc1NC(=O)CCn1nc(-c2ccccc2)c2ccccc2c1=O | inactive: -3.06% |
| CCOC(=O)C1(Cc2cccc(F)c2)CCN(Cc2cnn(CC)c2C)CC1 | inactive: -3.27% |
| COCC(C)N1C(=O)Cc2c1nc(N)c1c(N)nc(N3CCN(c4ccccc4F)CC3)c(C#N)c21 (stereo not drawn) | inactive: 7.24% |
| Cc1ccc(NC(=O)COC(=O)C2(CC(=O)NC(C)(C)C)CCCC2)cc1C | inactive: 22.6% |

| Compound | growth rescue (activation) |
| --- | --- |
| COc1ccc(OC)c(N(CC(=O)NCCSCc2ccco2)S(=O)(=O)c2ccccc2)c1 | inactive: 5.59% |
| COC(=O)c1cccc(-n2c(C)cc(C=O)c2C)c1C | inactive: 28% |
| O=C(N/N=C/c1cn[nH]c1-c1ccccc1)c1ccco1 | inactive: 2.29% |
| O=C(CSCC(=O)Nc1cccc([N+](=O)[O-])c1)Nc1ccccc1 | inactive: 4.09% |
| COc1ccccc1C(=O)NC(=S)Nc1cccnc1Cl | inactive: 13.4% |
| O=C(CCN1CCCCC1)N=Nc1c(O)[nH]c2ccccc12 | inactive: 1.52% |
| CCOC(=O)CN1C(=O)N(CC(=O)OCC)C(c2ccccc2)(c2ccccc2)C1=O | inactive: 10.2% |
| COc1cc(NC(=O)N[C@@H](CCSC)C(=O)O)cc(OC)c1 | inactive: -9.15% |
| CN1C(=O)/C(=C/c2ccccc2OCc2ccccc2)NC1=S | inactive: 22.4% |
| CCCN(CCC)Cc1c(C(=O)N/N=C/C(C)=C\c2ccccc2)nnn1-c1nonc1N | inactive: -5.17% |
| NS(=O)(=O)c1ccc(CCNc2nn3c(-c4cccc(OC(F)(F)F)c4)cnc3s2)cc1 | inactive: 25.6% |
| C=CCNC(=S)N/N=C/c1ccc(C(C)(C)C)cc1 | inactive: 10.6% |
| COc1ccc(NC(=S)N2CCN(C(=O)c3ccco3)CC2)cc1OC | inactive: 7.73% |
| CC(C)C(NC(=O)c1ccccc1F)C(=O)NCCCn1ccnc1 (stereo not drawn) | inactive: 19.7% |
| CC(=O)Oc1ccc(N(C(C)=O)S(=O)(=O)c2cc([N+](=O)[O-])ccc2C)cc1 | inactive: 0.449% |
| COC(=O)c1ccc2c(=O)[nH]c(CSc3nc(C)cs3)nc2c1 | inactive: -7.04% |
| N#C/C(=C\c1ccc(N2CCOCC2)o1)C(=O)Nc1ccc(O)cc1 | inactive: -20.4% |
| COc1cc(C2CC(=O)N(CC(=O)NCC3CCCO3)c3ccccc3S2)cc(OC)c1OC (stereo not drawn) | inactive: 8.34% |
| Cc1ccc(C(=O)Nc2ccccc2C(=O)NC(Cc2c[nH]c3ccccc23)C(=O)O)cc1 (stereo not drawn) | inactive: 14.6% |
| Cc1c(NC(=O)c2cc(-c3cccc(Cl)c3)on2)c(=O)n(-c2ccccc2)n1C | inactive: -17.3% |
| O=C(NCN1CCCCC1)c1cnccn1 | inactive: -25.6% |
| Cc1cccn2c(=O)c3cc(C#N)c(=NC(=O)c4ccccc4)n(Cc4ccco4)c3nc12 | inactive: -30% |
